These results are taken from a collection of fitness landscapes (doi:10.1016/j.celrep.2020.107928).

To fix the notation:
B1: Caulobacter ParB omega fusion; a variant is named by its letters at X, in order, B8GW30 (parent)
chain: MESVVVGEPGMSEGRRGLGRGLSALLGEVDAAPAQAPGEQLGGSREAPIEILQRNPDQPRRTFREEDLEDLSNSIREKGVLQPILVRPSPDTAGEYQIVAGERAWRAAQRAGLKTVPIMVRELDDLAVLEIGIIENVQRADLNVLEEALSYKVLMEKFERTQENIAQTIGKSXSHVANXMRLLXLPDEVQSYLVSGELTAXHARAIAAAADPVALAKQIIEGGLSVRETEALARKAPNLSAGKSKGGRPPRVKDTDTQALESDLSSVLGLDVSIDHRGSTGTLTITYATLEQLDDLCNRLTRGI

The full ranking holds about 81,000 sequences; the median of “one-hybrid fitness for binding parS DNA” is about -0.17, and the highest 2% start at about 0.51. The list shows a part of the results.

Variants of B1 are the subject of this assay. Put plainly: one-hybrid fitness for binding parS DNA (scaled: cognate 1, non-cognate 0); higher = stronger binding. The settings on record: with parS DNA site. In outline:
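Pre- and post-selection plasmids were Illumina-sequenced, three replicate libraries were pooled, and any variant with under 10 reads was removed. The libraries were Caulobacter ParB with four specificity codons randomised, selected in E. coli USO through a HIS3 reporter whose site is 19 bp from the promoter. Cells grew 48 hours at 37°C on M9 without histidine, with 0.1 mM IPTG and 5 mM 3-AT. Fitness is the log change in variant-to-wild-type read ratio, rescaled against cognate and non-cognate.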
On to GKNR, for which the “one-hybrid fitness for binding parS DNA” value is ≤ 0.2.
AGLA: the “one-hybrid fitness for binding parS DNA” value is ≤ 0.2.
In the case of LWWT it was ≤ 0.2; in that of PAMS, ≤ 0.2.
For the variant WMVC, the “one-hybrid fitness for binding parS DNA” value was ≤ 0.2.
As for LTYG, the “one-hybrid fitness for binding parS DNA” value was ≤ 0.2.
Turning to FIMG, the “one-hybrid fitness for binding parS DNA” value is ≤ 0.2.
In the case of PWWG it was ≤ 0.2; in that of QWYA, ≤ 0.2; in that of RAFK, ≤ 0.2.
Regarding ATMK, the “one-hybrid fitness for binding parS DNA” value was ≤ 0.2.
The result for IYDT reads ≤ 0.2; that for RPGG, ≤ 0.2; that for RMMA, 0.643.
In the case of RWAH, the “one-hybrid fitness for binding parS DNA” value is ≤ 0.2.
PTPM: the “one-hybrid fitness for binding parS DNA” value is ≤ 0.2.
The result for LQGT reads ≤ 0.2; that for RYCG, 0.974.
Regarding VRDA, the “one-hybrid fitness for binding parS DNA” value is ≤ 0.2.
In the case of TLTW it was ≤ 0.2.
With CLWC, the “one-hybrid fitness for binding parS DNA” value is ≤ 0.2.
In the case of MVTS it was ≤ 0.2; in that of SQFT, ≤ 0.2; in that of QSVS, ≤ 0.2.
In the case of VGYS, the “one-hybrid fitness for binding parS DNA” value is ≤ 0.2.
In the case of YYFR it was ≤ 0.2; in that of HVTY, ≤ 0.2; in that of HQER, ≤ 0.2.
The result for LNYT reads ≤ 0.2; that for RIVC, 0.942.
The result for DWYR reads ≤ 0.2; that for ALNH, ≤ 0.2; that for YENG, ≤ 0.2.
For KRQF, the “one-hybrid fitness for binding parS DNA” value is ≤ 0.2.
The result for HNRI reads ≤ 0.2; that for PGIE, ≤ 0.2; that for WYTR, ≤ 0.2.
In the case of SLKR it was ≤ 0.2; in that of TAQT, ≤ 0.2; in that of PVGV, ≤ 0.2.
As to FDLQ, the “one-hybrid fitness for binding parS DNA” value was ≤ 0.2.
The result for KKES reads ≤ 0.2; that for YYEG, ≤ 0.2; that for QYIT, ≤ 0.2.
As for AMNR, the “one-hybrid fitness for binding parS DNA” value was ≤ 0.2.
In the case of SLSN it was ≤ 0.2; in that of KSDC, ≤ 0.2.
The result for RAKE reads ≤ 0.2; that for ETIL, ≤ 0.2; that for NSMV, ≤ 0.2.
Consider GVRA, for which the “one-hybrid fitness for binding parS DNA” value was ≤ 0.2.
In the case of CITA it was ≤ 0.2; in that of YTMT, ≤ 0.2; in that of IPRR, ≤ 0.2.
The result for MLLI reads ≤ 0.2.
The result for LVHF reads ≤ 0.2; that for CRSP, ≤ 0.2; that for KSAY, ≤ 0.2.
On to SPLA, for which the “one-hybrid fitness for binding parS DNA” value is ≤ 0.2.
In the case of VASF it was ≤ 0.2; in that of SNML, ≤ 0.2.
In the case of HMSG it was ≤ 0.2; in that of FPFC, ≤ 0.2; in that of HGDK, ≤ 0.2.
In the case of IKWG it was ≤ 0.2.
ILHD: the “one-hybrid fitness for binding parS DNA” value was ≤ 0.2.
For the variant GRAA, the “one-hybrid fitness for binding parS DNA” value was ≤ 0.2.
In the case of RIQL it was ≤ 0.2; in that of HEET, ≤ 0.2.
The result for IQVL reads ≤ 0.2.
For ALHS, the “one-hybrid fitness for binding parS DNA” value was ≤ 0.2.
The result for TQNC reads ≤ 0.2.
With WDEV, the “one-hybrid fitness for binding parS DNA” value is 0.376.
Consider SHVM, for which the “one-hybrid fitness for binding parS DNA” value is ≤ 0.2.
As to ANHG, the “one-hybrid fitness for binding parS DNA” value is ≤ 0.2.
The result for YTCF reads ≤ 0.2; that for QSYT, ≤ 0.2.
In the case of FPGC it was ≤ 0.2.
Consider IYGV, for which the “one-hybrid fitness for binding parS DNA” value was ≤ 0.2.
As for IVWG, the “one-hybrid fitness for binding parS DNA” value is ≤ 0.2.
In the case of MPCT it was ≤ 0.2.
Turning to DFSK, the “one-hybrid fitness for binding parS DNA” value was ≤ 0.2.
In the case of DCWR it was ≤ 0.2; in that of QDDL, ≤ 0.2; in that of WGWR, ≤ 0.2.
Regarding RTVY, the “one-hybrid fitness for binding parS DNA” value is 0.443.
In the case of GFKS it was ≤ 0.2; in that of RRTP, ≤ 0.2.
Turning to CQPS, the “one-hybrid fitness for binding parS DNA” value is ≤ 0.2.
The result for HRAK reads ≤ 0.2; that for ALCC, ≤ 0.2.
For the variant PHDP, the “one-hybrid fitness for binding parS DNA” value was ≤ 0.2.
The result for TKSA reads ≤ 0.2.
In the case of SPCH it was ≤ 0.2.
In the case of PSFI it was ≤ 0.2; in that of PYCN, ≤ 0.2.
For the variant GVCT, the “one-hybrid fitness for binding parS DNA” value is ≤ 0.2.
In the case of HGYM it was ≤ 0.2; in that of DSPT, ≤ 0.2; in that of QSNY, ≤ 0.2.
The result for QCGI reads ≤ 0.2; that for QHDP, ≤ 0.2.
In the case of NLNR it was ≤ 0.2; in that of DQRR, ≤ 0.2; in that of CGLR, ≤ 0.2.
Turning to KMNR, the “one-hybrid fitness for binding parS DNA” value was ≤ 0.2.
As to GVEM, the “one-hybrid fitness for binding parS DNA” value is ≤ 0.2.
WMTY: the “one-hybrid fitness for binding parS DNA” value is ≤ 0.2.
For the variant LHYK, the “one-hybrid fitness for binding parS DNA” value is ≤ 0.2.
The result for HTPV reads ≤ 0.2; that for RWHA, 0.378.
For the variant RKVA, the “one-hybrid fitness for binding parS DNA” value was found to be 0.527.
In the case of PMGR it was ≤ 0.2; in that of QSII, ≤ 0.2; in that of WEGG, ≤ 0.2.
In the case of KHYC it was ≤ 0.2; in that of GTIR, ≤ 0.2.
In the case of FALV it was ≤ 0.2; in that of VQFL, ≤ 0.2.
Turning to LVTQ, the “one-hybrid fitness for binding parS DNA” value is ≤ 0.2.
For the variant PPRW, the “one-hybrid fitness for binding parS DNA” value is ≤ 0.2.
In the case of PSAF it was ≤ 0.2; in that of ERVF, ≤ 0.2; in that of FSAS, ≤ 0.2.
ETSI: the “one-hybrid fitness for binding parS DNA” value was ≤ 0.2.
The result for GVLV reads ≤ 0.2; that for CVNW, ≤ 0.2.
In the case of ETLG it was ≤ 0.2; in that of PFLD, ≤ 0.2; in that of WSWL, ≤ 0.2.
Regarding QREL, the “one-hybrid fitness for binding parS DNA” value is ≤ 0.2.
The result for VDFS reads ≤ 0.2; that for QVTF, ≤ 0.2.
The result for EGVG reads ≤ 0.2; that for HQSL, ≤ 0.2.
In the case of RMRA it was 0.765; in that of HWGA, ≤ 0.2; in that of NTMG, ≤ 0.2.
In the case of DFSH, the “one-hybrid fitness for binding parS DNA” value is ≤ 0.2.
For the variant ITPM, the “one-hybrid fitness for binding parS DNA” value is ≤ 0.2.
The result for FCPG reads ≤ 0.2.
The result for PIVG reads ≤ 0.2.
The result for KLNI reads ≤ 0.2; that for SKSN, ≤ 0.2.
With FTHL, the “one-hybrid fitness for binding parS DNA” value was ≤ 0.2.
The result for CALH reads ≤ 0.2; that for GMDV, ≤ 0.2.
The result for TPRY reads ≤ 0.2; that for SIPD, ≤ 0.2; that for ISRI, ≤ 0.2.
In the case of EYAC it was ≤ 0.2.
As for TTER, the “one-hybrid fitness for binding parS DNA” value was ≤ 0.2.
Turning to NHQR, the “one-hybrid fitness for binding parS DNA” value is ≤ 0.2.
